Measured values reported in publication PMC8073005, “Antifungal Activity and DNA Topoisomerase Inhibition of Hydrolysable Tannins from Punica granatum L” (International Journal of Molecular Sciences, 2021).

molecular target: topoisomerase II from Candida albicans (Candida albicans, UniProt P87078); test: biochemical
UniProt P87078, sequence (P87078 whole entry, looked up): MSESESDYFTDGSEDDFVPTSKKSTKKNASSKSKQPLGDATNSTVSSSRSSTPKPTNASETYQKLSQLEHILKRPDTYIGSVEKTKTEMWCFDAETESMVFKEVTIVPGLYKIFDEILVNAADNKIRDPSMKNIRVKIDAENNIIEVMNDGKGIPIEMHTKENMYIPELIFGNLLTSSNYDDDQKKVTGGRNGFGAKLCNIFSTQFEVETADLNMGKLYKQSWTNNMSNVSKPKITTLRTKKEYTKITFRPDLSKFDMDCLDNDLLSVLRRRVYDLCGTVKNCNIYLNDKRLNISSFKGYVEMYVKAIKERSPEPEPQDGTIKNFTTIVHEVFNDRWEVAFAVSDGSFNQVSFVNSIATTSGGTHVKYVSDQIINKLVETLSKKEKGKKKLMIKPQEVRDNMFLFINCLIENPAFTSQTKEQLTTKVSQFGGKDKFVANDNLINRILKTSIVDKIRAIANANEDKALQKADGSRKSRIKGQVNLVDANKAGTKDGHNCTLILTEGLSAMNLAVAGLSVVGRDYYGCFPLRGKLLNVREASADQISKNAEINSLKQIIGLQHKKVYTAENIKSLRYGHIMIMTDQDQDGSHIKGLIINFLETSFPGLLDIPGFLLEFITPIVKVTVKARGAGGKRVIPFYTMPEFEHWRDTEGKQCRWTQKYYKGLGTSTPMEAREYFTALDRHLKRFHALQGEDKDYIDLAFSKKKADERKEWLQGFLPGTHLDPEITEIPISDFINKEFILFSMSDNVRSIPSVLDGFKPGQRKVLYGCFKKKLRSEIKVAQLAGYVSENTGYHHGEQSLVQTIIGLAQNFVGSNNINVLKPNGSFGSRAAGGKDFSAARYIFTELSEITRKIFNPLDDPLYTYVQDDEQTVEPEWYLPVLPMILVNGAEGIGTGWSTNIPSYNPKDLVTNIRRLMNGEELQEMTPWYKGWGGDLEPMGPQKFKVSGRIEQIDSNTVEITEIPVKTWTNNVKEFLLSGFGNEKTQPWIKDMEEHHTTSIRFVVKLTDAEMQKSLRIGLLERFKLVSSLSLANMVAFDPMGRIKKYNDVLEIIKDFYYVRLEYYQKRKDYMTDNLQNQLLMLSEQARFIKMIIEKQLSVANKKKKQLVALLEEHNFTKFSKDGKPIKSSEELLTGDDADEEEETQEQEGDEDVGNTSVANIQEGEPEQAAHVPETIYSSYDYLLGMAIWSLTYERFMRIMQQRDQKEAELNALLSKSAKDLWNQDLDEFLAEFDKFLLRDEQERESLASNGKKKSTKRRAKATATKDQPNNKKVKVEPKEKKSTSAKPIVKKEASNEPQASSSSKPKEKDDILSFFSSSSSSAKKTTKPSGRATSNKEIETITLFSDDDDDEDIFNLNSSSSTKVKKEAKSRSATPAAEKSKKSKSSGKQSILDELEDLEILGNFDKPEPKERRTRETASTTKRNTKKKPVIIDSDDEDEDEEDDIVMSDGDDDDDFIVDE

Point of comparison: COc1cc([C@@H]2c3cc4c(cc3[C@@H](O[C@@H]3O[C@@H]5CO[C@@H](C)O[C@H]5[C@H](O)[C@H]3O)[C@H]3COC(=O)[C@H]23)OCO4)cc(OC)c1O [Etoposide, etoposide, reference compound], IC50 15.9 ± 0.7 µM. Against it:
- O=C1OC[C@H]2OC(O)[C@H](O)[C@@H](O)[C@@H]2OC(=O)c2cc(O)c(O)c(O)c2-c2c(O)c(O)c3oc(=O)c4c(c(O)c(O)c5oc(=O)c2c3c54)-c2c1cc(O)c(O)c2O (mixture of isomers) [Punicalin, punicalin] — 2.6-fold higher, 40.7 ± 0.8 µM
- O=C1O[C@H]2[C@@H]3OC(=O)c4cc(O)c(O)c(O)c4-c4c(O)c(O)c5oc(=O)c6c(c(O)c(O)c7oc(=O)c4c5c76)-c4c(cc(O)c(O)c4O)C(=O)OC[C@H]3OC(O)[C@@H]2OC(=O)c2cc(O)c(O)c(O)c2-c2c1cc(O)c(O)c2O (mixture of isomers) [Punicalagin, punicalagin] — 3.5-fold lower, 4.6 ± 0.4 µM
- O=c1oc2c(O)c(O)cc3c(=O)oc4c(O)c(O)cc1c4c23 [Ellagic Acid, ellagic acid] — 3.4-fold higher, 53.9 ± 0.2 µM
